Measurements taken from article PMC4336329 (PLoS ONE, 2015).
Out of some 310,000 compounds screened, about 14,000 (4.5%) showed an effect of 50% or more. Effects have a minus sign here. This is one part of the list.

target: human ether-à-go-go-related gene (hERG) potassium channel (human, UniProt Q12809); test: primary screen, population patch clamp on CHO cells stably expressing hERG
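Note: peak tail current of the secondary pulse compared with the same well before compound.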

Chain of human ether-à-go-go-related gene (hERG) potassium channel (Q12809 whole entry, looked up): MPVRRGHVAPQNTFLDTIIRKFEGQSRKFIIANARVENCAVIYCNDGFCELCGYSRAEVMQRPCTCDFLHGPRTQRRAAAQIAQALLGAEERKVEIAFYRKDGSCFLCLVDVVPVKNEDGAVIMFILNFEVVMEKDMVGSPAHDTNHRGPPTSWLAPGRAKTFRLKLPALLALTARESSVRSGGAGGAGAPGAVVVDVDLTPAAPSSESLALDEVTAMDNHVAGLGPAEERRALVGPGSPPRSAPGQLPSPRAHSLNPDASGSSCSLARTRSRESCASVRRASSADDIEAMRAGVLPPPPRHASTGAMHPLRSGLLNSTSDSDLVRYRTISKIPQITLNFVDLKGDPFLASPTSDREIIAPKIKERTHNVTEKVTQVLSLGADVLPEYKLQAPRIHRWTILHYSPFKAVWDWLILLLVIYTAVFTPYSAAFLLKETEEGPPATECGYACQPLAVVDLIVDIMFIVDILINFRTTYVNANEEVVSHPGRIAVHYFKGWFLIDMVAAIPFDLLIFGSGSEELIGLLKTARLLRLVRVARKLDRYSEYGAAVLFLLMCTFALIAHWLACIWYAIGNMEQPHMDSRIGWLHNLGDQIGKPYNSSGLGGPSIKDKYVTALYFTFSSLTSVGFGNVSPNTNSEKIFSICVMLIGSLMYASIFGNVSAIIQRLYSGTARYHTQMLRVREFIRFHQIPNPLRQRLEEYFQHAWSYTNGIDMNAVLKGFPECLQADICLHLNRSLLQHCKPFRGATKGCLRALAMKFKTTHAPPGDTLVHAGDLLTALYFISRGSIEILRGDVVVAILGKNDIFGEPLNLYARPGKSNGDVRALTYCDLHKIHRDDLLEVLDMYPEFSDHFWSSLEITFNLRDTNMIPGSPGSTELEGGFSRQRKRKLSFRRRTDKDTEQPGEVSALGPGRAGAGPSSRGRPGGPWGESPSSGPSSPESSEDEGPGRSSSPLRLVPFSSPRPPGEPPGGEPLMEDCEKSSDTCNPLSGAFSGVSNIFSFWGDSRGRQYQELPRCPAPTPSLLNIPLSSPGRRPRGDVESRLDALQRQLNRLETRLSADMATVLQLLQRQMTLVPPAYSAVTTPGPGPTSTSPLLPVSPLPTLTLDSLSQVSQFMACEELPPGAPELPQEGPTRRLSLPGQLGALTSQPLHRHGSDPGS

Row | SMILES | hERG current change (%, negative = inhibition) at 10uM [%]
1 | CC1CCCCC1NC(=O)CN1C(=O)c2ccccc2S1(=O)=O (stereo not shown) | 17.1
2 | COc1ccc(CN2C(=O)C(CC(C)C)Nc3ncnc(N4CCOCC4)c32)cc1.O=C(O)C(F)(F)F (stereo not shown) | -0.749
3 | COc1ccc(CCn2c(SCC(=O)Nc3cc(C)on3)nc3ccccc3c2=O)cc1OC | 0.454
4 | COc1ccc(C2CC(c3ccc(Br)cc3)=NN2C(=O)CCC(=O)O)cc1OC (stereo not shown) | 9.97
5 | Cc1ccccc1C(=O)OC1OC(=O)C(Cl)=C1Nc1ccccc1 (stereo not shown) | 1.75
6 | Cc1ccc2c(c1)C(c1ccc([N+](=O)[O-])cc1)=NNC(c1ccc(Br)cc1)=N2 | -17.4
7 | CCN(CC)S(=O)(=O)c1ccc(NC(=O)c2cnc(C)cn2)cc1 | 8.22
8 | Cc1nn(C)c(Cl)c1CN1CCCC(CCC(=O)NCc2ccccc2F)C1 (stereo not shown) | -27
9 | CCOC(=O)c1[nH]c(C)c(C(=O)NCc2ccccn2)c1C | 8.34
10 | CN(C)C(=O)/C(C#N)=C\c1cc(Br)c(Sc2ccc(Cl)cc2)o1 | -2.4
11 | O=C(Oc1ccc(=O)n(-c2ccccc2)n1)c1cccc(Cl)c1 | 6.78
12 | CCC(C)[C@@H](C(=O)NCC1CCC(C(=O)O)CC1)n1nnc2ccccc2c1=O (stereo partly shown) | -6.52
13 | COC(=O)c1ccc(CSc2nnc(NCc3ccccc3)s2)o1 | -11.7
14 | COC(=O)c1ccc(NC(=O)C2CCCN2S(=O)(=O)c2ccc(OC)cc2)cc1 (stereo not shown) | -16.8
15 | O=c1[nH][nH]c(-c2ccccc2)c1C=Nc1cccc(Cl)c1 | 5.35
16 | COc1ccc(OCCCC(=O)N(C)CC(=O)Nc2c(C)cccc2C)cc1 | -1.89
17 | Cc1ccc(C2CCN(C(=S)NC(C)C)C2)cc1 (stereo not shown) | 11.7
18 | CCOC(=O)c1c(-c2ccc(OC)cc2)csc1NC(=O)C1CCCO1 (stereo not shown) | 11
19 | CCCn1nnc(NC(=O)/C=C/c2ccco2)n1 | 11.6
20 | Cc1cccc(NCC(=O)N/N=C\c2cccn2C)c1 | 0.687
21 | COC(=O)c1ccc(COc2ccc(F)cc2)o1 | -27.4
22 | Cc1cc(NC(=O)CSCC(=O)OCc2nnc(-c3ccccc3)o2)no1 | 26.9

Row | SMILES | hERG current change (%, negative = inhibition) at 10uM [%]
23 | COc1ccc(CN2C(=O)C3C4C=CC(C4)C3C2=O)cc1 (stereo not shown) | 13.4
24 | Cc1ccc(-c2nn(-c3ccccc3)cc2/C=N/NC(=O)CSc2nnc(C)n2-c2ccccc2)cc1 | 2.45
25 | Cc1cc(N2CCN(C)CC2)nc2ccc(NC(=S)N3CCN(c4ccc(F)cc4)CC3)cc12 | -3.11
26 | CC(=O)N(c1ccc2oc(=O)sc2c1)S(=O)(=O)c1ccccc1 | 2.13
27 | COC(=O)C1(Cc2cc(-c3ccc(OC)cc3OC)no2)CCN(C(=O)OC(C)(C)C)CC1 | 2.01
28 | CCN(CC(=O)Nc1ccc2c(c1)OCCO2)C(=O)/C=C/c1cccc(Br)c1 | -28.7
29 | COc1cccc(C(=O)N2N=C(c3cccc(OC)c3)CC2(O)C(F)(F)F)c1 (stereo not shown) | 17
30 | Br.Cc1ccc(C2=CSC3=NCCN23)c(C)c1 | -26.8
31 | Cc1sc2nc(C3CC3)nc(N3CCN(C(=O)c4ccccc4F)CC3)c2c1C.Cl | -37.6
32 | COc1ccc(OC)c(-c2nn(-c3ccccc3)cc2C(=O)NCC(c2ccco2)N2CCCC2)c1 (stereo not shown) | -63.7
33 | CCOC(=O)CN1C(=O)CSc2ccc(S(=O)(=O)N3CCOCC3)cc21 | 9.95
34 | NC(=O)CN1C(=O)C2C3c4ccccc4C(c4ccccc43)C2C1=O (stereo not shown) | 3.59
35 | CN1CCN(C(=O)c2c(NC(=O)c3ccco3)sc3c2CCC(C(C)(C)C)C3)CC1 (stereo not shown) | -69.5
36 | CN(c1ccc(C(=O)N2CCCCCC2)cc1)S(=O)(=O)c1ccccc1 | -6.01
37 | CC1(C)C2SCC(=O)N2CCN1CC(=O)NN (stereo not shown) | -0.829
38 | O=C(Cn1cccc1C(=O)c1ccccc1)NCCN1CCOCC1 | -2.26
39 | CCCCOc1ccc(OCCNS(=O)(=O)N(C)C)cc1 | -16.9
40 | Cc1onc(-c2c(F)cccc2Cl)c1C(=O)Nc1ccc(Cl)c(S(=O)(=O)N(C)C)c1 | 11.7
41 | OC(Cc1ccncc1)(c1ccccc1)c1ccccc1 | -5.91
42 | COc1ccc(C2C(C(N)=O)=C(C)Nc3nc(CCCO)nn32)cc1OC (stereo not shown) | 18.8
43 | CCN(CC)C(=O)C(=O)Nc1ccc(OCc2ccccc2)cc1 | 3.57
44 | Cc1sc2nc(CSCC(=O)Nc3ccc(N4CCOCC4)cc3)[nH]c(=O)c2c1C | -9.94

Row | SMILES | hERG current change (%, negative = inhibition) at 10uM [%]
45 | COc1ccc(C(=O)O)cc1NC(=S)NC(=O)C(c1ccccc1)c1ccccc1 | 11.9
46 | COc1ccccc1-n1cc(CN2CCCC(CO)(Cc3cccc(Cl)c3)C2)cn1 (stereo not shown) | -49.5
47 | COc1ccc(NC(=O)c2c(Cl)nc3ccccn23)cc1 | -7.94
48 | Cc1cccc(N(C)S(=O)(=O)c2ccc3[nH]c(=O)c(=O)[nH]c3c2)c1 | 8.14
49 | Cc1ccccc1OCC(=O)Nc1nc(-c2ccncc2)cs1 | 0.61
50 | COc1ccc(S(=O)(=O)Nc2cccc(NC(C)=O)c2)cc1 | -6.58
51 | O=C(Nc1ccncc1)C1CCCN(S(=O)(=O)c2cccc3cccnc23)C1 (stereo not shown) | -15
52 | CC1CCC(=NNC(=O)Cc2ccccc2)CC1 (stereo not shown) | 10.9
53 | Cc1ccc(S(=O)(=O)N2CCOCC2)cc1NC(=O)C1CC(=O)N(c2ccc3c(c2)OCCO3)C1 (stereo not shown) | 16.5
54 | O=C(NCc1ccco1)C1CC(=O)N(c2ccc(F)cc2)C1 (stereo not shown) | -21.4
55 | COc1ccc(-c2nc3cc(NC(=O)Cc4ccc(OC)c(OC)c4)ccc3o2)cc1 | -2.92
56 | Cc1ccc(-c2cc3ccccc3nc2N2CCOCC2)cc1 | 10.2
57 | COc1ccc(CNC(=O)C2CCCN2C(=O)NC2CCCCC2)cc1 (stereo not shown) | -16.2
58 | NS(=O)(=O)c1cccc(NC(=O)COC(=O)COc2ccc3ccccc3c2)c1 | 5.27
59 | COc1ccc(OC)c(C2=Nn3c(nnc3-c3cc(C)[nH]n3)SC2)c1 | -19.7
60 | OCC[C@@H]1C[C@@H](O)[C@H](O)[C@@]2(OCCc3ccccc32)O1 | 21.9
61 | Cc1ccc(CNC(=O)COC(=O)CSc2ccc(Br)cc2C)cc1 | 10.9
62 | COc1cccc(N2C(=O)C(CC(=O)Nc3ccc(F)cc3)N(C3CCCCC3)C2=O)c1 (stereo not shown) | -7.12
63 | Cc1ccc(S(=O)(=O)N(C)C)cc1[N+](=O)[O-] | -4.14
64 | Cc1ccc(C(=O)Nc2cc(Cl)ccc2Oc2ccccc2)cc1[N+](=O)[O-] | 20.3
65 | CCCc1cc(=O)[nH]c(SCC(=O)N(CCOC)c2c(N)n(Cc3ccccc3)c(=O)[nH]c2=O)n1 | -6.63
66 | CCOC(=O)c1cnc(SCc2ccc(C)cc2)nc1N | -0.61

Row | SMILES | hERG current change (%, negative = inhibition) at 10uM [%]
67 | Cc1cc(C)c[n+](-c2[nH]c(=O)sc2/C=N/NC([S-])=Nc2ccccc2)c1 | 19.1
68 | O=C(O)CCc1ccc(-c2ccc(Br)cc2)n1-c1ccc(O)cc1 | 6.94
69 | CCCC[C@@H]1C[C@H]1[C@@H](NC(=O)c1ccco1)c1ccc(Cl)cc1 | -50.2
70 | CCOC(=O)c1sc(NCC2CCCO2)nc1C (stereo not shown) | 9.92
71 | COc1ccc(/C=N/NC(=O)CC(=O)NCCc2ccccc2)cc1OC | 3.66
72 | Cc1c(Cl)cccc1NC(=O)Nc1cc(C(C)(C)C)nn1C | 11.7
73 | CCOc1cc2c3c(c1)C1(OCCO1)C(=O)N3C(C)(C)CC2C (stereo not shown) | -5.16
74 | COc1cc(/C=C2/SC(=S)N(CC(=O)O)C2=O)ccc1OCC(=O)Nc1ccc(C)c(C)c1 | -6.69
75 | C[C@@H]1CN(Cc2nc(-c3cccs3)no2)C[C@H](C)O1 | 3.96
76 | COc1ccc(NC(=O)Nc2ccncc2)c(OC)c1 | 17
77 | CCN(CCO)C(=O)C(c1ccccc1)c1ccccc1 | 14.8
78 | O=[N+]([O-])c1ccc(SCCO)nc1SCCO | -1.63
79 | Clc1cc(Cl)cc(Nc2ncnc(-n3cccc3)n2)c1 | 9.8
80 | O=C(CSc1ccc(Cl)cc1)N1CCOCC1 | -6.37
81 | CCC(C)(C)c1ccc(OCCN2C(=O)NC(C)(C)C2=O)cc1 | 0.378
82 | CCOC(=O)c1nc(Nc2ccc(N3CCC(C)CC3)cc2)c2ccccc2n1 | -17.1
83 | CCc1nnc(NC(=O)CN2CCN(c3nc(-c4ccccc4)cs3)CC2)s1 | -11.8
84 | N#Cc1cn(-c2ccccc2)nc1-c1ccccc1 | 0.313
85 | CC(C)C(=O)Nc1ccc(NC(=O)CCc2ccccc2)cn1 | 18.4
86 | Cc1ccc(-n2nnnc2Sc2nc([N+](=O)[O-])nn2C)c(C)c1 | -27.6
87 | CCOC(=O)C1CCN(CCC(=O)Nc2ccc(C)c(C)c2)CC1 | -54.2
88 | CS(=O)(=O)N(CC(=O)N1CCCCCC1)c1ccccc1 | -3.51
